From paper PMC9365803, “Identification of a HTT-specific binding motif in DNAJB1 essential for suppression and disaggregation of HTT” (Nature Communications, 2022)

How the values were obtained:
[1] = biological target: T1, HTTExon1Q48; test: cell-based or functional assay
T1 chain: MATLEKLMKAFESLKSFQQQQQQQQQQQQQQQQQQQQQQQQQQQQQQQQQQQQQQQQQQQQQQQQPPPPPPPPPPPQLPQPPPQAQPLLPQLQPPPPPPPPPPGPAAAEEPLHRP

[2] = biological target: T2, HTTExon1Q48 fibrils; test: co-sedimentation; HTT fibril-binding assay: 2 µM HTTExon1Q48 aggregated 4.5 h at 20 °C; DNAJB1 variant added at 1 µM, 1 h at RT; sedimented at 20.000 rpm 30 min 4 °C; pellet analysed by Western blot; conditions: both partners purified
T2 construct: first exon of huntingtin with 48 glutamines, as amyloid fibrils; Amyloid fibrils of many copies; also called HTT fibrils; preformed HTTExon1Q48 fibrils; not shown: GST, N-terminal, cleaved; CyPet, C-terminal, kept
T2 chain: T1 chain

[3] = biological target: T2, HTTExon1Q48 fibrils; test: cell-based or functional assay
[4] = biological target: the molecule itself; test: SEC; Superdex 75 10/300 GL and Superose 6; 30 mM HEPES-KOH pH 7.4, 50 mM KCl, 1 mM β-mercaptoethanol; 0.5 ml/min; Conalbumin and Ovalbumin as standards

B1: DNAJB1^wt (natural protein, human)
chain: MGKDYYQTLGLARGASDEEIKRAYRRQALRYHPDKNKEPGAEEKFKEIAEAYDVLSDPRKREIFDRYGEEGLKGSGPSGGSGGGANGTSFSYTFHGDPHAMFAEFFGGRNPFDTFFGQRNGEEGMDIDDPFSGFPMGMGGFTNVNFGRSRSAQEPARKKQ[about 150 residues not shown]PERIPQTSRTVLEQVLPI
half-life (T1/2) of HTTExon1Q48 fibrilization, FRET assay, with Hsc70, Apg2 and ATP [1]: 27 h

B2: DNAJB1^H244A (natural protein, human)
chain: MGKDYYQTLGLARGASDEEIKRAYRRQALRYHPDKNKEPGAEEKFKEIAEAYDVLSDPRKREIFDRYGEEGLKGSGPSGGSGGGANGTSFSYTFHGDPHAMFAEFFGGRNPFDTFFGQRNGEEGMDIDDPFSGFPMGMGGFTNVNFGRSRSAQEPARKKQ[about 150 residues with changes not shown]PERIPQTSRTVLEQVLPI
notes: DNAJB1 (human Hsp40) with H244A; primers S1-T1 on this plasmid run from the start codon to the stop codon; Same SEC elution peak as the wild type (dimer); source: E. coli BL21-CodonPlus (DE3)-RIPL, purified (Ni-NTA; His-Smt3 tag cleaved with His-Ulp1); not shown: 6His-Smt3, N-terminal, cleaved
fibril binding relative to DNAJB1^wt [2]: ~30%
half-life (T1/2) of HTTExon1Q48 fibrilization, FRET assay, with Hsc70, Apg2 and ATP [1]: 10 h
re-solubilization of preformed HTTExon1Q48 fibrils with Hsc70, Apg2 and ATP, relative to DNAJB1^wt [3]: ~50%
binding result [4]: binds
